The values that follow come from publication PMC4336329 (PLoS ONE, 2015).

About 2,200 (0.71%) of roughly 310,000 compounds showed an effect of 50% or more. Effects have a minus sign here. The list shows a part of the results.

This assay deals with human ether-à-go-go-related gene (hERG) potassium channel (human, UniProt Q12809). In words: primary screen, population patch clamp on CHO cells stably expressing hERG.
Sequence of human ether-à-go-go-related gene (hERG) potassium channel (Q12809 whole entry, looked up): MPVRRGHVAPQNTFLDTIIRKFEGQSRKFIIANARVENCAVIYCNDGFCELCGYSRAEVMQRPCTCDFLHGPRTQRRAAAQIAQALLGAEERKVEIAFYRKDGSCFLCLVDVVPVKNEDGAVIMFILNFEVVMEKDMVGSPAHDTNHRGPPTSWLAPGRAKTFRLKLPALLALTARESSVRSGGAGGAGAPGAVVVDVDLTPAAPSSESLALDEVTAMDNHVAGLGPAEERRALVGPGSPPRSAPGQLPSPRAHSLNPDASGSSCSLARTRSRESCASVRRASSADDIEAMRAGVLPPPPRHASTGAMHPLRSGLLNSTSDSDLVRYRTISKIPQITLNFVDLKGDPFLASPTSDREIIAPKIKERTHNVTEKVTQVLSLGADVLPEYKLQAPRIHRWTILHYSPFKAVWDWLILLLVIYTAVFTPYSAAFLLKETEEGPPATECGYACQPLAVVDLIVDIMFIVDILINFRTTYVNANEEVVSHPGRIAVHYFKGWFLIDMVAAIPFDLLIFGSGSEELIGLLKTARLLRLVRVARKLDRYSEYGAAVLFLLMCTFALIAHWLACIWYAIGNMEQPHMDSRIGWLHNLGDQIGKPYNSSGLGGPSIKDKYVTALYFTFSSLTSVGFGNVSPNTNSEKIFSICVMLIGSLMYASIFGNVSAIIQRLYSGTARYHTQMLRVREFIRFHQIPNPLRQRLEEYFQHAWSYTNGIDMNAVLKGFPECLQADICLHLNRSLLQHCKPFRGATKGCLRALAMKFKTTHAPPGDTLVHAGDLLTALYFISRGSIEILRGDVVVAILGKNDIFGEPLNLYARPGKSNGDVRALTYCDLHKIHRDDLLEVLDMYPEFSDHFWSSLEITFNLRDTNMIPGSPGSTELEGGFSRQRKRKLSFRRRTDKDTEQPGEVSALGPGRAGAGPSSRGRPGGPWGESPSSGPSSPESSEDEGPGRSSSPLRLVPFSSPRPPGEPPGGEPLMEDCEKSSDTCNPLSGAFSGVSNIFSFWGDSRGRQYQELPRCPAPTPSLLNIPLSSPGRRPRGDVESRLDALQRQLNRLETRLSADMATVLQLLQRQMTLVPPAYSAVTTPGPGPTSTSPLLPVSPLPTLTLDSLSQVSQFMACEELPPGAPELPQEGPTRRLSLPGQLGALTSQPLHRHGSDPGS
Regarding `Cc1ccc(-c2nnc(N)o2)cc1`, the “hERG current change (%, negative = inhibition) at 1uM” value was found to be 15.1%.

On to `O=C(NCCOc1ccccc1)c1ccccc1SCC(=O)N1CCCC1`, for which the “hERG current change (%, negative = inhibition) at 1uM” value stood at 18.2%.

Consider `O=C(Nc1nccs1)C1CC(=O)N(CCc2ccc(F)cc2)C1` (centres unmarked), for which the “hERG current change (%, negative = inhibition) at 1uM” value worked out at 9.8%.

With `CN1CCN(C(=O)COc2ccc3ccccc3c2)CC1`, the “hERG current change (%, negative = inhibition) at 1uM” value was 10.7%.

`COc1ccc(-c2c(C#Cc3ccsc3)c3ccccc3n2C)cc1`: the “hERG current change (%, negative = inhibition) at 1uM” value came out at 13.2%.

On to `COc1ccc(CN2C(=O)c3cccnc3C2=O)cc1S(=O)(=O)N(C)c1ccc(C)cc1`, for which the “hERG current change (%, negative = inhibition) at 1uM” value is reported as 15.8%.

On to `O=C(NC1CCCC1)C1CC(=O)N(C2CCCCCCC2)C1` (centres unmarked), for which the “hERG current change (%, negative = inhibition) at 1uM” value is on record as 6.02%.

Consider `CCOC(=O)C(=O)c1cn(C2OCC(OC(C)=O)C(OC(C)=O)C2OC(C)=O)c2ccccc12` (centres unmarked), for which the “hERG current change (%, negative = inhibition) at 1uM” value was 14.9%.

For the molecule `CSc1ccc(CNCc2ccc3c(c2)OCO3)cc1.O=C(O)C(=O)O`, the “hERG current change (%, negative = inhibition) at 1uM” value is recorded as 6.18%.

As for `CCOc1ccccc1C(=O)N(Cc1ccc(C)o1)C1CCS(=O)(=O)C1` (centres unmarked), the “hERG current change (%, negative = inhibition) at 1uM” value amounted to 12.3%.

Turning to `Cc1c(NC(=O)C2CCCN2S(=O)(=O)c2ccccc2)c(=O)n(-c2ccccc2)n1C` (centres unmarked), the “hERG current change (%, negative = inhibition) at 1uM” value came out at 15.5%.

In the case of `CC12CC3(C)CC(C)(C1)CC(C(=O)Nc1nn[nH]n1)(C2)C3`, the “hERG current change (%, negative = inhibition) at 1uM” value is reported as 9.23%.

For `CN(C)c1nc(C(=O)Nc2ccccc2)nc(N(C)C)n1`, the “hERG current change (%, negative = inhibition) at 1uM” value was found to be 12%.

Turning to `Fc1cccc(/C=N/N=C/c2cccc(F)c2)c1.O`, the “hERG current change (%, negative = inhibition) at 1uM” value came to 16.7%.

Consider `COc1ccc(-c2csc(NC(=O)c3ccccc3NS(=O)(=O)c3ccc(C)cc3)n2)cc1`, for which the “hERG current change (%, negative = inhibition) at 1uM” value was determined as 6.88%.

Regarding `O=C(N/N=C/c1ccco1)c1cc(-c2cccc(Br)c2)nc2ccccc12`, the “hERG current change (%, negative = inhibition) at 1uM” value turned out to be 11.2%.

On to `Cc1oc(C(C)(C)C)cc1C(=O)N1CCN(C(c2ccccc2)c2ccccc2)CC1`, for which the “hERG current change (%, negative = inhibition) at 1uM” value came to 5.55%.

Consider `CCOc1ccc(/C(O)=C2/C(=O)C(=O)N(c3ccccn3)C2c2ccc(F)cc2)c(C)c1` (centres unmarked), for which the “hERG current change (%, negative = inhibition) at 1uM” value turned out to be 8.25%.

As to `CC(C)CC(=O)NC(=S)Nc1sc2c(c1C(N)=O)CCC2`, the “hERG current change (%, negative = inhibition) at 1uM” value is recorded as 10.9%.

Turning to `CCCCC/C=C/C1=CC(=O)C[C@H](c2ccc(OC)c(OC)c2)C1`, the “hERG current change (%, negative = inhibition) at 1uM” value is 9.99%.

In the case of `CC1(C)CN(c2ccccc2)N(C(=O)c2ccc(C#N)cc2)C1=O`, the “hERG current change (%, negative = inhibition) at 1uM” value is -20%.

Consider `CC(C)(CNC(=O)Cc1ccc(Br)cc1)N1CCOCC1`, for which the “hERG current change (%, negative = inhibition) at 1uM” value was determined as 16.3%.

Take `C=CCNC(=O)CN1CCC(NC(=O)c2ccco2)CC1`: the “hERG current change (%, negative = inhibition) at 1uM” value amounted to 2.47%.

Regarding `CCCCCC(=O)Nc1ccc(-c2csc(C)n2)cc1`, the “hERG current change (%, negative = inhibition) at 1uM” value worked out at 13.6%.

For the molecule `O=C(O)CC(c1ccc(Cl)cc1)n1cccc1` (centres unmarked), the “hERG current change (%, negative = inhibition) at 1uM” value is on record as 4.8%.

In the case of `COc1ccc(/C=C/C(=O)N(CC(C)C)C2CCS(=O)(=O)C2)cc1` (centres unmarked), the “hERG current change (%, negative = inhibition) at 1uM” value was 6.56%.

For the molecule `CCOc1ccc(S(=O)(=O)NCc2ccccn2)cc1NC(=O)c1ccccc1F`, the “hERG current change (%, negative = inhibition) at 1uM” value was determined as 15.7%.

As for `CCO[C@H]1OC(C(=O)N2CCN(C)CC2)=C[C@@H](c2ccc3c(c2)OCO3)[C@@H]1CCCO`, the “hERG current change (%, negative = inhibition) at 1uM” value is reported as -2.6%.

For `CC1=NN(c2ccc(C)cc2C)C(=O)C1C(c1ccccc1O)C1C(=O)N(c2ccc(C)cc2C)N=C1C` (centres unmarked), the “hERG current change (%, negative = inhibition) at 1uM” value amounted to 18.7%.

Regarding `CCN(CC)c1ccc(/C=N/NC(=O)OC(C)(C)C)cc1`, the “hERG current change (%, negative = inhibition) at 1uM” value is on record as 13.1%.

Consider `COc1cc2ncnc(NCc3ccc(C)o3)c2cc1OC`, for which the “hERG current change (%, negative = inhibition) at 1uM” value was 10.2%.

For `Cc1cc(C(=O)OCC(=O)N2CCOCC2)ccc1[N+](=O)[O-]`, the “hERG current change (%, negative = inhibition) at 1uM” value came out at 14.5%.

As to `COc1ccc(C(=O)NNC(=S)NC(=O)c2cccnc2)cc1`, the “hERG current change (%, negative = inhibition) at 1uM” value is recorded as 7.27%.

Consider `CC(C)(C)SCCNC(=O)COc1ccccc1`, for which the “hERG current change (%, negative = inhibition) at 1uM” value is 10%.

Take `O=C(N/N=C/c1ccc(O)cc1)c1cc(-c2ccccc2)nc2ccccc12`: the “hERG current change (%, negative = inhibition) at 1uM” value is recorded as 11.1%.

Turning to `CCCCCC(=O)OC(CN1CCCCC1)CN1CCCC1=O.Cl` (centres unmarked), the “hERG current change (%, negative = inhibition) at 1uM” value is given as 7.03%.

Take `COc1ccc(/C=C/C(=O)Oc2cc(O)cc(O)c2)cc1`: the “hERG current change (%, negative = inhibition) at 1uM” value is 16.8%.

In the case of `Cc1ccccc1NC(=O)N1C2CCCC1CC(NC(=O)C1CC1)C2` (centres unmarked), the “hERG current change (%, negative = inhibition) at 1uM” value is listed as 8.55%.

For `CCc1cc(=O)oc2cc(C)cc(OCC(=O)NC3CCN(Cc4ccccc4)CC3)c12`, the “hERG current change (%, negative = inhibition) at 1uM” value is -7.14%.

For the molecule `O=S(=O)(NCC(c1cccnc1)N1CCN(Cc2ccccc2)CC1)c1ccc(Cl)cc1` (centres unmarked), the “hERG current change (%, negative = inhibition) at 1uM” value is on record as -60.6%.

For `O=C(COC(=O)c1cc(=O)c2ccccc2o1)NC1CCCCC1`, the “hERG current change (%, negative = inhibition) at 1uM” value is 17.8%.

In the case of `Cn1c(=O)c2c(nc(CN3CCN(Cc4ccccc4)CC3)n2CCN2CCOCC2)n(C)c1=O`, the “hERG current change (%, negative = inhibition) at 1uM” value is listed as -2.01%.

Consider `Cc1nc(-c2ccc(S(=O)(=O)Oc3ccc(Cl)cc3Cl)s2)cs1`, for which the “hERG current change (%, negative = inhibition) at 1uM” value is on record as 10.4%.

Take `CCOC(=O)C1=C(C)N=c2s/c(=C\c3ccc(O)c([N+](=O)[O-])c3)c(=O)n2C1c1ccccc1OC` (centres unmarked): the “hERG current change (%, negative = inhibition) at 1uM” value was -32%.

For `CCCOc1ccc(C2C(C(=O)c3ccc(C)o3)=C(O)C(=O)N2Cc2cccnc2)cc1` (centres unmarked), the “hERG current change (%, negative = inhibition) at 1uM” value came out at 12.2%.

Regarding `CCCCOc1ccc(C(=O)NCC(=O)NCC(c2cccs2)N2CCOCC2)cc1` (centres unmarked), the “hERG current change (%, negative = inhibition) at 1uM” value was found to be 15.4%.

As to `COc1ccc2c(c1OC)C(=O)N1N=C(c3ccc(O)cc3)CC21` (centres unmarked), the “hERG current change (%, negative = inhibition) at 1uM” value is listed as 3.01%.

On to `CCOc1ccc(NCc2nnc(SCC(=O)Nc3cc(C)on3)n2-c2ccc(OC)cc2)cc1`, for which the “hERG current change (%, negative = inhibition) at 1uM” value worked out at 1.27%.

Regarding `CN1CCN(c2c(F)cc([N+](=O)[O-])c(N)c2Br)CC1`, the “hERG current change (%, negative = inhibition) at 1uM” value amounted to 0.789%.

Take `CCn1c(=O)c2c(nc3n2CCCN3Cc2ccccc2)n(C)c1=O`: the “hERG current change (%, negative = inhibition) at 1uM” value came to 13%.

Turning to `CC(=O)c1ccc(OCCCCCCCOc2ccc(C(C)=O)cc2)cc1`, the “hERG current change (%, negative = inhibition) at 1uM” value was 12.9%.

In the case of `CCn1nnc(-c2ccccc2NC(=O)c2cnccn2)n1`, the “hERG current change (%, negative = inhibition) at 1uM” value is recorded as 4.95%.

Regarding `CCOc1ccc(CNC(=O)CCn2c(=O)oc3ccccc32)cc1OC`, the “hERG current change (%, negative = inhibition) at 1uM” value is on record as 9.27%.

As to `O=C(CSc1nnc(-c2ccc(F)cc2)o1)Nc1ccc(S(=O)(=O)N2CCCC2)cc1`, the “hERG current change (%, negative = inhibition) at 1uM” value is 8.51%.

In the case of `CC1CCN(c2c(NCC3CCC(C(=O)NCCc4ccccc4)CC3)c(=O)c2=O)CC1` (centres unmarked), the “hERG current change (%, negative = inhibition) at 1uM” value came out at 6.38%.

As for `CCc1ccc(C(C)NC(=O)c2ccncc2)cc1` (centres unmarked), the “hERG current change (%, negative = inhibition) at 1uM” value was 11.4%.
